The values that follow come from publication PMC4336329 (PLoS ONE, 2015).

The structures appear in SMILES notation. About 2,200 (0.71%) of roughly 310,000 compounds showed an effect of 50% or more. The effect is printed as a negative number. Some of the results follow.

In this assay the target is human ether-à-go-go-related gene (hERG) potassium channel (human, UniProt Q12809). Kind of assay: primary screen, population patch clamp on CHO cells stably expressing hERG.
Chain of human ether-à-go-go-related gene (hERG) potassium channel (Q12809 whole entry, looked up): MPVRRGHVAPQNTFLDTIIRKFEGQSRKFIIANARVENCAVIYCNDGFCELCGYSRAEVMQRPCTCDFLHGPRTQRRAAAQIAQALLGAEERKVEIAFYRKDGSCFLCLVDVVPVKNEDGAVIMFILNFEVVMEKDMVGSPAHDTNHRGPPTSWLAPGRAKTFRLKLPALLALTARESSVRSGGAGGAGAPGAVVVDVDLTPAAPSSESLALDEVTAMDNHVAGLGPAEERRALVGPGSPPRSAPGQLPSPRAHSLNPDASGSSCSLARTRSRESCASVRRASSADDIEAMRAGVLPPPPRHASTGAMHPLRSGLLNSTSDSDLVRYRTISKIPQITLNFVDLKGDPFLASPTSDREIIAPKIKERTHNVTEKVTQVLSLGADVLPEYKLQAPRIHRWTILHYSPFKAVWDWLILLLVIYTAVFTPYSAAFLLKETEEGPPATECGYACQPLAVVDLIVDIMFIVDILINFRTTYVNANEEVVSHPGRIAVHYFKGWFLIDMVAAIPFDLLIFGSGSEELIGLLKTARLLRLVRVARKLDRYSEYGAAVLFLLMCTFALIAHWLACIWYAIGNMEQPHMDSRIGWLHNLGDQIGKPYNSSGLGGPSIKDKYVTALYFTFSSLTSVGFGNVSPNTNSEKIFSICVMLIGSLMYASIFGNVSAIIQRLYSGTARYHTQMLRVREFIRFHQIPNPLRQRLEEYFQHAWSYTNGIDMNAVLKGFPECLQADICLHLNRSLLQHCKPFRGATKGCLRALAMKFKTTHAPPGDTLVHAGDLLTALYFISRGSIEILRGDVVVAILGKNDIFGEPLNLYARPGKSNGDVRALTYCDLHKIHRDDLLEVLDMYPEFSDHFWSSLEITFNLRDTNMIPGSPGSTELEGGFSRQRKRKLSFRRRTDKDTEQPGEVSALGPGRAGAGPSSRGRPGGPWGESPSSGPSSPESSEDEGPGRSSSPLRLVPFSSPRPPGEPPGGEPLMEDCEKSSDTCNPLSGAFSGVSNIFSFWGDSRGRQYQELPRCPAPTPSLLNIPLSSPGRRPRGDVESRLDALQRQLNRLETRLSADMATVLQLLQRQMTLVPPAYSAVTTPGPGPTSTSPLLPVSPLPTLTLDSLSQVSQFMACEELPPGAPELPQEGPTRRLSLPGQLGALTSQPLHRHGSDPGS
As for `O=C(c1ccc2c(c1)OCO2)N1CCOCC1`, the “hERG current change (%, negative = inhibition) at 1uM” value is listed as 14.5%.

For `Cc1cc2c(cc1S(=O)(=O)N1CC(C)CC(C)C1)OCC(=O)N2` (centres unmarked), the “hERG current change (%, negative = inhibition) at 1uM” value came to 8.71%.

As for `CSc1ccccc1C(=O)N1CCC(n2nccc2NC(=O)C(C)(C)C)CC1`, the “hERG current change (%, negative = inhibition) at 1uM” value was 26.9%.

Consider `NC(=O)c1ccc(NC(=O)CCNC(=O)c2ccco2)cc1`, for which the “hERG current change (%, negative = inhibition) at 1uM” value was 5.05%.

Take `CCOc1cc(-c2nc3ccccc3s2)ccc1O`: the “hERG current change (%, negative = inhibition) at 1uM” value was found to be 10.3%.

Take `CC(=O)NCCSCCNC(C)=O`: the “hERG current change (%, negative = inhibition) at 1uM” value is recorded as 12.2%.

With `COc1ccc(Cc2nnc(SCC(=O)Nc3ccc(N4CCOCC4)cc3)n2C)cc1`, the “hERG current change (%, negative = inhibition) at 1uM” value is recorded as 8.08%.

Regarding `COC(=O)c1cc(NC(=O)c2cc(-c3ccc(Cl)cc3)oc2C(F)(F)F)ccc1N1CCOCC1`, the “hERG current change (%, negative = inhibition) at 1uM” value amounted to 12.5%.

Consider `O=C1CC(N2CCN(c3ccccc3)CC2)C(=O)N1Cc1ccc(Cl)cc1` (centres unmarked), for which the “hERG current change (%, negative = inhibition) at 1uM” value is -3.82%.

For `COc1cc(C)c(-c2nc(CN3C[C@@H]4C[C@@H](C3)c3cccc(=O)n3C4)c(C)o2)cc1C`, the “hERG current change (%, negative = inhibition) at 1uM” value is listed as 2.53%.

Consider `CC(=O)Nc1ccc(C2=NNC(=Nc3ccc(S(=O)(=O)N4CCOCC4)cc3)SC2)cc1`, for which the “hERG current change (%, negative = inhibition) at 1uM” value is listed as 9.84%.

As for `CCc1ccc(NC(=O)c2nc(S(=O)(=O)Cc3ccccc3)ncc2Cl)cc1`, the “hERG current change (%, negative = inhibition) at 1uM” value is given as 20.7%.

Regarding `NC(=O)CSc1nc2ccccc2c(=O)n1Cc1ccco1`, the “hERG current change (%, negative = inhibition) at 1uM” value is on record as -15.1%.

As for `CC(=O)NCCNc1nc2c(-c3cccc(C)c3)nnn2c2ccccc12`, the “hERG current change (%, negative = inhibition) at 1uM” value was 13.5%.

On to `Cc1ccsc1C(=O)N1CCCC(N2CCN(c3cccc(Cl)c3)CC2)C1` (centres unmarked), for which the “hERG current change (%, negative = inhibition) at 1uM” value is given as -0.726%.

As to `CC1=CC(=Nc2c(C)n(C)n(-c3ccccc3)c2=O)C=C(C)C1=O`, the “hERG current change (%, negative = inhibition) at 1uM” value amounted to 16.9%.

With `COc1ccccc1NC(=O)CNC(=O)c1ccc(F)cc1`, the “hERG current change (%, negative = inhibition) at 1uM” value worked out at 5.22%.

In the case of `Cc1ccccc1NC(=O)c1nc2nccc(C)n2n1`, the “hERG current change (%, negative = inhibition) at 1uM” value is 11.2%.

On to `CCC(Sc1nc2ccc(N)cc2s1)C(=O)Nc1nccs1` (centres unmarked), for which the “hERG current change (%, negative = inhibition) at 1uM” value worked out at 9.96%.

On to `Cc1cc(C(=O)N[C@H](c2ccccc2)[C@@]2(C)C[C@@H]2[C@@H](C)C(=O)Nc2ccc3ccccc3c2)n(C)n1`, for which the “hERG current change (%, negative = inhibition) at 1uM” value is recorded as 10.3%.

With `CC(C)c1cc(-c2cc(-c3ccc(Cl)cc3)on2)nc(NC2CCCC2)n1`, the “hERG current change (%, negative = inhibition) at 1uM” value was determined as 9.56%.

For `CC1CN(c2nc3ccccc3cc2-c2ccccc2)CC(C)O1` (centres unmarked), the “hERG current change (%, negative = inhibition) at 1uM” value is recorded as 10.3%.

Take `COc1ccc(NC(=O)CN2CCC(NC(=O)C3CCCCC3)CC2)cc1`: the “hERG current change (%, negative = inhibition) at 1uM” value is recorded as -3.15%.

As to `O=C(CCCN1C(=O)NC2(CCCC2)C1=O)Nc1ccc(F)cc1`, the “hERG current change (%, negative = inhibition) at 1uM” value is on record as 12.1%.

In the case of `Cn1c(O)c(C=Nc2ccc(Br)cc2)sc1=O`, the “hERG current change (%, negative = inhibition) at 1uM” value stood at 15.2%.

For `C1CNC(C23CC4CC(CC(C4)C2)C3)=N1`, the “hERG current change (%, negative = inhibition) at 1uM” value was 16.7%.

Turning to `CCC(=O)N1c2ccc(S(=O)(=O)NC3CCCCC3)cc2CC1C` (centres unmarked), the “hERG current change (%, negative = inhibition) at 1uM” value was 4.96%.

As for `Cc1ccc(NC(=O)c2ccc(CSc3ncnc4nc[nH]c34)cc2)c(C)c1`, the “hERG current change (%, negative = inhibition) at 1uM” value was 8.32%.

Consider `COc1ccc(S(=O)(=O)n2ccc(C(C)Oc3ccc(-c4ccccc4)c(F)c3)n2)cc1` (centres unmarked), for which the “hERG current change (%, negative = inhibition) at 1uM” value turned out to be 13.4%.

On to `Brc1ccc(-c2noc(-c3ccccn3)n2)o1`, for which the “hERG current change (%, negative = inhibition) at 1uM” value is reported as 8.06%.

For `COc1ccc(C/C(N)=N/n2cnnc2)cc1`, the “hERG current change (%, negative = inhibition) at 1uM” value stood at 12%.

For `Cc1ccc(S(=O)(=O)NC2CCCC2)cc1C(N)=O`, the “hERG current change (%, negative = inhibition) at 1uM” value was 9.63%.

As to `COC(=O)c1cccc(NC(=O)Nc2ccc(Cl)c(Cl)c2)c1`, the “hERG current change (%, negative = inhibition) at 1uM” value was determined as 7.07%.

For the compound `COc1ccc2cc(CCNC(=O)c3c(-c4ccccc4Cl)noc3C)c(=O)[nH]c2c1`, the “hERG current change (%, negative = inhibition) at 1uM” value is on record as 9.53%.

As to `Cc1ccccc1NC(=O)c1cccc2nccnc12`, the “hERG current change (%, negative = inhibition) at 1uM” value stood at 6.18%.

Regarding `Cc1cc(C)n(-c2ccc(C(=O)Nc3ccccn3)cc2)n1`, the “hERG current change (%, negative = inhibition) at 1uM” value stood at 8.48%.

In the case of `Cc1ccc(NC(=O)CN2C(=O)S/C(=C\c3ccc(-c4cccc(C(=O)O)c4C)o3)C2=O)cc1`, the “hERG current change (%, negative = inhibition) at 1uM” value is -4.13%.

On to `CC(=O)c1cc(C(=O)N2CCCC(C(=O)c3ccc(Cl)cc3)C2)cs1` (centres unmarked), for which the “hERG current change (%, negative = inhibition) at 1uM” value was -10%.

Regarding `O=C(COC(=O)CSc1ccc2ccccc2c1)NC1CCCC1`, the “hERG current change (%, negative = inhibition) at 1uM” value is given as 5.98%.

As to `COc1ccc(C(CCc2ccc(C)o2)NC(=O)Nc2ccc(OC)cc2OC)cc1` (centres unmarked), the “hERG current change (%, negative = inhibition) at 1uM” value is given as -6.54%.

As to `Cc1ccc(NP(=O)(c2ccc(N(C)C)cc2NC(=O)c2cccs2)N2CCOCC2)cc1Cl` (centres unmarked), the “hERG current change (%, negative = inhibition) at 1uM” value is reported as -0.549%.

Regarding `COc1ccc(-c2[nH]ncc2CN2CCC(O)(c3ccc(Cl)cc3)CC2)cc1`, the “hERG current change (%, negative = inhibition) at 1uM” value is reported as -27.5%.

On to `Cc1ccccc1-n1c(SCc2c(C)noc2C)nnc1-c1c[nH]c2ccccc12`, for which the “hERG current change (%, negative = inhibition) at 1uM” value stood at 9.91%.

With `CNC(=O)c1cc2ccccc2o1`, the “hERG current change (%, negative = inhibition) at 1uM” value stood at 4.84%.

Take `Cc1ccc(/C=C/C(=O)O)cc1S(=O)(=O)NCc1cccnc1`: the “hERG current change (%, negative = inhibition) at 1uM” value worked out at 11.8%.

For the compound `COc1cccc(/C=N/NC(=O)c2c(-c3ccccc3)noc2C)c1O`, the “hERG current change (%, negative = inhibition) at 1uM” value was determined as 9.26%.

As to `O=S(=O)(NC1CC2CCC1C2)c1ccc2c(c1)OCCO2` (centres unmarked), the “hERG current change (%, negative = inhibition) at 1uM” value came to 10.6%.

Regarding `CCC(=O)OC1(C)C(=O)C=C2C=C(c3ccc(C#N)cc3)OC=C2C1=O` (centres unmarked), the “hERG current change (%, negative = inhibition) at 1uM” value turned out to be 3.14%.

For the compound `Nc1ccc(Nc2ccncc2[N+](=O)[O-])cc1`, the “hERG current change (%, negative = inhibition) at 1uM” value was 15.5%.

Regarding `CN(CC(=O)Nc1ccc(Cl)c(C(F)(F)F)c1)C(=O)C1CSC2(C)CCC(=O)N12` (centres unmarked), the “hERG current change (%, negative = inhibition) at 1uM” value worked out at 12.4%.

On to `CCOC(=O)C1Nc2ccc(OC(F)(F)F)cc2C2C=CCC12` (centres unmarked), for which the “hERG current change (%, negative = inhibition) at 1uM” value came out at 9.33%.

For the compound `C/C(=N\Nc1nc(-c2ccccn2)nc2ccccc12)c1ccc(F)cc1`, the “hERG current change (%, negative = inhibition) at 1uM” value is listed as 12.5%.

Consider `Cc1ccc(S(=O)(=O)N2CCN(C(=O)CCCN3C(=O)NC4(CCCC4)C3=O)CC2)cc1C`, for which the “hERG current change (%, negative = inhibition) at 1uM” value was 12.8%.

Consider `CCOc1ccc(C(=O)Nc2ccc(S(=O)(=O)N3CCOCC3)cc2)cc1OCC`, for which the “hERG current change (%, negative = inhibition) at 1uM” value was 4.08%.

With `CCN1CCN(c2ccc(S(=O)(=O)N3CCCCC3)cc2NC(=O)Cc2ccccc2)CC1`, the “hERG current change (%, negative = inhibition) at 1uM” value is -4.14%.

`COc1ccc(CN(C)C(=O)c2ccc(NC(=O)CC3SC(N4CCCC4)=NC3=O)cc2)c(OC)c1OC` (centres unmarked): the “hERG current change (%, negative = inhibition) at 1uM” value worked out at 18.8%.
